Reference: the supplement of paper PMC3334620
In all, about 33,000 sequences were measured (“E-score (-0.5 to 0.5)”: median about -0.011, highest 2% from about 0.28 on). The list shows a part of the results.

Biological target: T1, Gcr1 (UniProt P07261)
T1 sequence: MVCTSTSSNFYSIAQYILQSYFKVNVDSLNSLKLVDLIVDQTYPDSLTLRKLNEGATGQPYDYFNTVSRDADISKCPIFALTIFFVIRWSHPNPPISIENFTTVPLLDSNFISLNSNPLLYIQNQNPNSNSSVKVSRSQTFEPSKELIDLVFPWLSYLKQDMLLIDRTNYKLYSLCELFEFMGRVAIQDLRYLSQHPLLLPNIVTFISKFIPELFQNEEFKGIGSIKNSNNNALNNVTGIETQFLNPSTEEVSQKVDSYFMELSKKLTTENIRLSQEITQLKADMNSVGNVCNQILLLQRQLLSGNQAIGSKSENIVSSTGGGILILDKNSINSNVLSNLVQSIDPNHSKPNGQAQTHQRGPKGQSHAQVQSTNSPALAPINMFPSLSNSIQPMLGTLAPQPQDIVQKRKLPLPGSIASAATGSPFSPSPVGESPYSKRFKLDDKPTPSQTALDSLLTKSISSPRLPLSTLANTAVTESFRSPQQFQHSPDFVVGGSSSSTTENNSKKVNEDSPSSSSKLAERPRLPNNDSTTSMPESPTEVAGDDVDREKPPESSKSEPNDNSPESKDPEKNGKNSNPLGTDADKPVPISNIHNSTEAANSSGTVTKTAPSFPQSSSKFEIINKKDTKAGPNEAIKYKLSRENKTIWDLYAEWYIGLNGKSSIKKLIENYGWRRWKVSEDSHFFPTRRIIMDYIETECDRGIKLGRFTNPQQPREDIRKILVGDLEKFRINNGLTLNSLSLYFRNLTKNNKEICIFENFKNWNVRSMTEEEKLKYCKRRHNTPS
Assay: PBM E-score (8-mer binding enrichment) (E-score (-0.5 to 0.5)); higher = stronger / more preferred TF binding; most listed sequences are background and not binding sites
Conditions: protein concentration: 100 nM; construct: GST-full length
Outline: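 For each ungapped eight-base word taken together with its reverse complement, the Universal PBM Analysis Suite assigned an E-score. Binding data came from GST-tagged yeast transcription factors, applied at about 100-200 nM, on universal all-10-mer Agilent arrays made double-stranded by primer extension. Fluorescent anti-GST marked bound protein, and scans were normalised with masliner.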

Row | Sequence | PBM E-score
1 | GTTACGCA | -0.0236
2 | CCGCATCA | 0.103
3 | CAGTACCA | 0.0486
4 | AGATCCTG | 0.197
5 | CCAGAGCA | 0.141
6 | ACGATTAC | -0.146
7 | GATTAGGC | -0.0727
8 | CATGGCCA | -0.176
9 | CGGATACA | 0.123
10 | AATTGACG | 0.0162
11 | CCTTAACC | -0.119
12 | AGCGGGAA | 0.142
13 | CCCCTCTC | -0.317
14 | ATGATCGC | -0.116
15 | CTTCCTCA | 0.264
16 | AATTGATA | -0.0138
17 | ATGACACA | 0.0727
18 | ATGTCATG | 0.046
19 | GCAAGCAC | -0.135
20 | TATACACA | -0.0787
21 | AAGAACTC | -0.0866
22 | GCCTGAGA | -0.0639
23 | CAGTTAGA | -0.145
24 | ATTCGTAA | 0.131
25 | GATACCGC | 0.146

Row | Sequence | PBM E-score
26 | ATCATGTA | 0.146
27 | CGAGACCA | -0.1
28 | CGTCACAA | -0.04
29 | ACAAAATG | 0.00734
30 | GGTAGCGA | 0.00523
31 | CTCGTTCC | -0.124
32 | CTACAAGC | 0.0109
33 | CTAAGGTC | -0.174
34 | GGACGAGA | -0.149
35 | CATGGGCG | -0.105
36 | ATTCTATA | 0.073
37 | TCCTATCA | 0.0175
38 | ATACGCTG | 0.199
39 | CGAGGGAC | -0.0995
40 | CTACCTAG | 0.0487
41 | AAGGTAAT | -0.00255
42 | AACTGGCG | 0.0962
43 | CGATCGTA | 0.11
44 | AAGAATGG | 0.0959
45 | CTGCCCTA | -0.0351
46 | TAGGAGCA | 0.0796
47 | AATATTTC | 0.146
48 | AGTTTGCG | 0.145
49 | CTAAGCCC | -0.155
50 | GATGTCGA | 0.0577

Row | Sequence | PBM E-score
51 | GCGGTTCC | 0.314
52 | AAACGCGT | -0.103
53 | AACTCCAT | -0.178
54 | AAACCAGT | 0.0252
55 | CGGCCGCA | -0.114
56 | CAATCTCA | 0.101
57 | CGAACTCA | 0.108
58 | ATACTCCA | -0.209
59 | ACCCTGTG | -0.161
60 | CCCGGTTA | -0.00373
61 | GCAGCCAC | 0.383
62 | TCGAGAGA | -0.102
63 | GCACGACA | -0.225
64 | GTGATTAA | 0.0979
65 | GATTCTAC | 0.0244
66 | ACGGAATC | 0.234
67 | AAAAGTCG | -0.0821
68 | AACGCAAG | -8e-05
69 | CAAGTCCA | -0.121
70 | CGAATAAG | -0.129
71 | CAACACGA | 0.0495
72 | CAACCCCC | -0.253
73 | CGGCCCGA | -0.219
74 | GCCTACGA | -0.0809
75 | ACCACGCC | -0.223

Row | Sequence | PBM E-score
76 | TCGACCGA | -0.0136
77 | GTATCGTA | 0.118
78 | GACAATCC | 0.0226
79 | TAAGTCAA | -0.193
80 | CTTATAGA | 0.214
81 | ACCATTGA | 0.173
82 | AAGCAAGA | -0.0505
83 | CCAAAAAC | 0.217
84 | AGATCTCG | -0.17
85 | CACATTCA | -0.16
86 | CAGACCGC | -0.0691
87 | ACTATCAG | -0.119
88 | AATCAGTC | 0.0549
89 | ATGCTAGC | 0.0479
90 | AGTACTGA | -0.0249
91 | ACCGGGCG | -0.122
92 | CAATTGGA | -0.0115
93 | ATGGTTTC | 0.0478
94 | CTAATGGC | 0.0834
95 | AGCGTGCA | -0.0882
96 | ATTCACTG | -0.0504
97 | AAAACTCT | -0.158
98 | CACTCGCA | -0.0706
99 | ATAGGCCA | -0.307
100 | CCCACAAC | 0.102

Row | Sequence | PBM E-score
101 | CGGTGGGA | 0.0886
102 | CCCTGTAG | 0.107
103 | ATCTGAAA | -0.0813
104 | AGACGTCC | -0.00119
105 | GATACTGC | -0.205
106 | CACCGGGG | -0.0978
107 | TAGATAAA | 0.0366
108 | CACTCAAC | -0.132
109 | GGTGGATA | -0.0366
110 | ACGAAACG | -0.14
111 | AGGTCCTG | 0.0546
112 | AGAGCTTC | 0.267
113 | AAACCACA | 0.135
114 | GACAAGTA | 0.112
115 | ACAAACCG | -0.121
116 | CGCTCGAA | -0.237
117 | CCGTTTTA | 0.0582
118 | CCAATTGG | 0.0314
119 | ACATAGTG | 0.0378
120 | GCTGCTTA | 0.239
121 | GACTAACC | -0.136
122 | CAAGGGAG | -0.186
123 | GCGGGAGC | 0.0458
124 | AAGCCGGT | 0.0536
125 | ATGTATGC | 0.00976

Row | Sequence | PBM E-score
126 | CCGTACGC | -0.183
127 | ATCCCCAT | 0.203
128 | CGTAGATC | -0.0785
129 | ACTAGACA | 0.0871
130 | CCCCATCA | -0.0694
131 | CAGCTATC | -0.147
132 | ATCTAATA | 0.0726
133 | AAAGACTA | -0.11
134 | CGTCCTAG | 0.0236
135 | AGCTTCGC | 0.173
136 | TATTGTGA | 0.00375
137 | AGAATAGG | 0.153
138 | ATGCAGCG | -0.132
139 | AAAACGAC | 0.0306
140 | CCTGCCAG | -0.111
141 | ACGTTCCG | -0.00756
142 | GTTCCGGA | 0.0744
143 | ATGATCCG | -0.0492
144 | AGTGGTAC | 0.252
145 | AGAGGATA | -0.0247
146 | GCGACCCA | -0.0276
147 | CTTTCCTC | 0.0224
148 | CCCAATCC | -0.0645
149 | CCATCAGC | -0.0217
150 | GGAGACAA | 0.0568

Row | Sequence | PBM E-score
151 | CCAGGTTC | 0.00618
152 | AATCCTAT | -0.0573
153 | GGCCAGCA | -0.034
154 | CAAAGGTG | -0.0827
155 | GCTGTGCA | -0.109
156 | CCCCCCGC | -0.152
157 | GGCAGGCC | -0.274
158 | ACGCGAGC | -0.159
159 | AGGCGCCT | 0.321
160 | ATGAGAAG | -0.0687
161 | AGCTGTTG | -0.071
162 | TCGAGTAA | 0.088
163 | CTTGGGTC | -0.0905
164 | AGGCAATA | -0.118
165 | TTGGAAAA | -0.138
166 | GCAGTAGC | -0.066
167 | AACGAATA | 0.0819
168 | CACCCTCG | 0.0182
169 | ACGGGGAT | 0.0712
170 | CAAACTGG | 0.0331
171 | GAGGTCCA | -0.0665
172 | CACAGAAC | -0.177
173 | GTGTCTCA | -0.121
174 | CAGCCATA | 0.022
175 | CTAGGGAC | 0.0174

Row | Sequence | PBM E-score
176 | AAGTCTGA | -0.0988
177 | CGAGGCCG | -0.151
178 | CACGTGTA | 0.0946
179 | CCACATGG | -0.0105
180 | GACATCTA | 0.127
181 | AGTACGAC | -0.0576
182 | AGGAGAAG | 0.26
183 | AGCCATTC | 0.0765
184 | CTTGTCAA | 0.0358
185 | AATAATAT | 0.0273
186 | AAAATAAT | 0.186
187 | CACCACGA | 0.0795
188 | AGACACAG | -0.0347
189 | ACGGCATG | -0.302
190 | CAGTATGA | 0.0724
191 | CGGTATGC | -0.186
192 | GGAAGCTA | 0.457
193 | CTGGTTGA | -0.09
194 | GACCTGTA | 0.057
195 | CCAATAAA | 0.212
196 | AGTAGCGA | -0.151
197 | AGTCCGGA | 0.0284
198 | ATAAAGGA | 0.0403
199 | ACATTTGG | 0.138
200 | GTAGCTGA | -0.023

Row | Sequence | PBM E-score
201 | CGAAGGTA | -0.0866
202 | GCACAGAC | 0.00749
203 | AGACACAT | -0.16
204 | CCCCGTCG | 0.00224
205 | CTCGATAA | 0.123
206 | AAAAGAAC | -0.0325
207 | ATTATTCC | 0.103
208 | ACTCACAT | -0.166
209 | GTGCAAGA | -0.0182
210 | ATGTGACG | -0.113
211 | ACGCAGAC | -0.0874
212 | ATGGGTGG | -0.0217
213 | ACCGTTCA | -0.195
214 | GCTGAGCA | -0.0824
215 | GAGCGACA | -0.0391
216 | CTTTAAGA | 0.219
217 | GAAAGTGC | 0.0252
218 | CACAGTAA | -0.0514
219 | GTTAACCA | -0.014
